Experimental data from the supplement of paper PMC10126150.
Values marked as one replicate rest on one cluster of the flow cell; about a third of the high ones do not repeat.

Each sequence was assayed on ATP (assay: switch fluorescence ratio, 500 uM ATP over buffer (Cy3 cluster intensity, sum of 5 cycles each) (fold (ratio)); higher = stronger signal-on switching upon ATP binding; sequences stand for … in TCGTCGGCAGCGTCAGATGTGTATAAGAGACAGTTTTTTTTTTTTTTTTTTTTTTTTT…TC). Conditions: aptamer strand: ATP DNA aptamer (quencher-CACCTGGGGGAGTATTGCGGAGGAAGG + anchor), 100 nM annealed; ATP concentration: 500 uM; one replicate.
Method in brief: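 Cy3-labelled switching-strand clusters on a modified Illumina MiSeq flow-cell were annealed to 100 nM quencher-labelled ATP aptamer and imaged first in selection buffer, then after 15 min with 500 uM ATP at 22 °C. NaOH stripping and re-annealing separated each of five buffer/ATP cycles, and clusters outside 100-1000 RFU were excluded. The fluorescence ratio sums target-cycle Cy3 intensity over buffer-cycle Cy3 intensity per cluster and averages it per switch-domain sequence.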
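Note: ATP exposure 15 min at 22 °C before imaging.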

Sequence | switch fluorescence ratio
TATTTCTTCA | 1.01
TATTTCTTGC | 0.977
TATTTGGGT | 1
TATTTGTCAG | 0.985
TATTTGTTC | 0.986
TATTTTTGAA | 1.04
TCAAAAAGGG | 1.05
TCAAAAGGTA | 0.976
TCAAACAGGT | 1.03
TCAAACATAA | 0.979
TCAAACATGC | 1.02
TCAAAGGAGA | 0.968
TCAAAGT | 1
TCAAATCGCC | 1.03
TCAACCATTC | 1.01
TCAACGGCCT | 1.04
TCAACGGGCG | 1.09
TCAACGTAT | 1.04
TCAACTTCA | 1.04
TCAACTTGTT | 1.16
TCAAGAATTA | 0.986
TCAAGAGATT | 0.978
TCAAGAGTTT | 0.996
TCAAGATGTA | 1.01
TCAAGCAAGG | 1.15
TCAAGCATGC | 1.06

Sequence | switch fluorescence ratio
TCAAGCCAGC | 0.982
TCAAGGAAAT | 1.03
TCAAGGAAGA | 1.02
TCAAGGCTTA | 1
TCAAGGGCTA | 1.01
TCAAGGTCTG | 1
TCAAGGTTAT | 0.975
TCAAGTACCT | 1.41
TCAAGTTGCC | 1
TCAAGTTTTA | 1.02
TCAATACCCA | 1.08
TCAATACCTA | 1.04
TCAATAGTCC | 1.3
TCAATCAGGG | 1.03
TCAATGGTCG | 1.12
TCAATGGTG | 0.991
TCAATGTACA | 1.01
TCAATTTAAT | 0.926
TCAATTTACA | 1.1
TCAATTTGCC | 1.02
TCACAAAGC | 1.04
TCACAAGAGT | 0.981
TCACACACGC | 1.45
TCACATACTG | 1.2
TCACCAGTCT | 1.02
TCACCCCACT | 1.36

Sequence | switch fluorescence ratio
TCACCCTCG | 1.06
TCACCCTTCT | 1.07
TCACCGGATT | 1.38
TCACCGTCGC | 1.11
TCACCTGGCA | 1.02
TCACGCGTTT | 1.01
TCACGGAATA | 1.5
TCACGGTTAC | 1.48
TCACTCGTCG | 0.999
TCACTGCGGA | 1.03
TCACTTTGGT | 0.996
TCACTTTTTT | 0.973
TCAGAAATGC | 2.45
TCAGAAGATA | 1.05
TCAGAATATA | 1
TCAGAATTGC | 1.07
TCAGACAGCT | 0.963
TCAGACCAGC | 1.07
TCAGACGGAT | 1.02
TCAGACTCCT | 2.11
TCAGAGCGCT | 1.04
TCAGATAATA | 0.981
TCAGATGTTA | 1.03
TCAGATTTAT | 1
TCAGCATAG | 1.15
TCAGCCAGTT | 0.972

Sequence | switch fluorescence ratio
TCAGCGCTTG | 1.01
TCAGCGGACG | 1.07
TCAGGAAAGA | 0.994
TCAGGCACGA | 0.988
TCAGGCCCCT | 0.963
TCAGGCGTTC | 1.01
TCAGGGCGCT | 1.04
TCAGGGCTTT | 1.02
TCAGGGGATA | 1
TCAGGGGT | 1.06
TCAGGGTGA | 1.03
TCAGGTGCGA | 1.66
TCAGGTTGTT | 0.957
TCAGTACTCG | 1.07
TCAGTAGATT | 1.01
TCAGTCACGA | 1.02
TCAGTCCTAA | 1.01
TCAGTCGCTA | 1.08
TCAGTCGGG | 1.01
TCAGTCTGCA | 1.15
TCAGTGCCTT | 1.02
TCAGTGCTGG | 1.01
TCAGTTGAGA | 1
TCAGTTGGCT | 0.982
TCAGTTTGGG | 0.978
TCAGTTTTG | 1.04

Sequence | switch fluorescence ratio
TCATACCGCA | 3.1
TCATACGAGA | 1.1
TCATAGATTA | 0.979
TCATATAGT | 1.03
TCATATTGCC | 1.04
TCATCAAGGT | 1.01
TCATCATATA | 1.03
TCATCCGGTT | 1.61
TCATCCTGGG | 1.08
TCATCTACAA | 1.23
TCATCTATGT | 0.984
TCATCTCCAC | 1.02
TCATGAATAC | 1.22
TCATGACGGG | 0.99
TCATGAGAAC | 1.01
TCATGAGC | 0.991
TCATGAGGCT | 0.983
TCATGCGACA | 1.09
TCATGGCTCT | 0.994
TCATGGTCCG | 1.04
TCATGGTCGA | 0.984
TCATTACATG | 1.02
TCATTACGTA | 1.37
TCATTACTAG | 1.18
TCATTAGAAC | 0.962
TCATTCCCAT | 1

Sequence | switch fluorescence ratio
TCATTCCGTC | 1.17
TCATTGGGAG | 1.05
TCATTGTATG | 1.02
TCATTGTGCA | 1.03
TCATTTAGAT | 1.01
TCATTTTATT | 0.977
TCCAAAAGCA | 1.88
TCCAAAGTTT | 1.04
TCCAACCACC | 1.27
TCCAAGCAGG | 1.68
TCCAAGTCCG | 1.21
TCCAATAAAT | 0.998
TCCAATGGGT | 0.973
TCCACAGCTG | 1.07
TCCACATTAT | 1.07
TCCACCCGTT | 1.26
TCCACCGGAC | 1.88
TCCACTACAC | 1.43
TCCACTATCT | 0.994
TCCACTTGCA | 1.05
TCCACTTTGC | 1.06
TCCAGAATGG | 1.03
TCCAGATCA | 0.996
TCCAGCAGAT | 1.23
TCCAGCGTGT | 1.06
TCCAGGAGCA | 1.11

Sequence | switch fluorescence ratio
TCCAGTGGTC | 1.04
TCCATGAGAG | 0.958
TCCATGGGGA | 1.03
TCCATGTAGG | 1.01
TCCATTCAAA | 0.999
TCCATTCATC | 1.01
TCCATTGCAA | 2.85
TCCATTGTAG | 0.965
TCCCAAGACA | 1.15
TCCCACAAC | 1.11
TCCCACTATA | 1.1
TCCCAGATTT | 1.21
TCCCCAGACA | 1.07
TCCCCATATG | 1.02
TCCCCATCAG | 1.04
TCCCCGGCCA | 0.991
TCCCCTTTTC | 1.13
TCCCGCGTCT | 1.17
TCCCGGAGTT | 1.12
TCCCGGCATC | 1.99
TCCCGGCCAA | 1.2
TCCCGTAAGA | 1.07
TCCCGTTTCT | 1.08
TCCCTATTA | 1.22
TCCCTGGAAT | 2.08
TCCCTTT | 0.954

Sequence | switch fluorescence ratio
TCCGAAACCG | 1.23
TCCGAACGAT | 3.43
TCCGAATTAT | 0.977
TCCGACATAT | 1.14
TCCGACCAG | 1.28
TCCGACTTG | 1.01
TCCGAGAAGA | 1.64
TCCGAGTCAT | 1
TCCGAGTGTG | 1.06
TCCGATACGT | 1.24
TCCGCCATCG | 2.27
TCCGGCATCA | 0.963
TCCGGCGTA | 0.992
TCCGGTTTGA | 1.01
TCCGGTTTGG | 0.969
TCCGTACTGG | 1.06
TCCGTAGGT | 1.22
TCCGTCCATA | 1.34
TCCTAAAGGG | 1.02
